# Assay results published in the supplement of paper PMC8728848.
# The other results are listed elsewhere or left out.
# Key:
# Assay in all cases: glycan array binding signal (z-score within array); higher = stronger binding
# Settings in all cases: glycan notation: IUPAC condensed, linker removed
# Fuc(a1-2)Gal = molecular target: Fuc(a1-2)Gal
# Procedure, shortened: (§1)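 Glycan array data were curated from 3228 arrays in the Consortium for Functional Glycomics database and kept only where the protein sequence was available. Glycan names were converted to IUPAC-condensed notation, and columns mapping to the same glycan were averaged. The binding signal is a within-array Z-score, averaged across arrays of the same protein sequence at different concentrations or buffers and across linkers. Negative Z-scores can be read as non-binding.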
# Fuc(a1-2)Gal(b1-3)GalNAc = molecular target: Fuc(a1-2)Gal(b1-3)GalNAc
# Procedure, shortened: as §1
# [1] = molecular target: Fuc(a1-2)Gal(b1-3)GalNAc(b1-3)Gal
# Procedure, shortened: as §1
# [2] = molecular target: Fuc(a1-2)Gal(b1-3)GalNAc(b1-3)Gal(a1-4)Gal(b1-4)Glc
# Procedure, shortened: as §1
# [3] = molecular target: Fuc(a1-2)Gal(b1-3)GalNAc(b1-4)[Neu5Ac(a2-3)]Gal(b1-4)Glc
# Procedure, shortened: as §1
# Fuc(a1-2)Gal(b1-3)GlcNAc = molecular target: Fuc(a1-2)Gal(b1-3)GlcNAc
# Procedure, shortened: as §1
# [4] = molecular target: Fuc(a1-2)Gal(b1-3)GlcNAc(b1-3)Gal(b1-4)Glc
# Procedure, shortened: as §1
# [5] = molecular target: Fuc(a1-2)Gal(b1-3)[Fuc(a1-4)]GlcNAc
# Procedure, shortened: as §1
# Fuc(a1-2)Gal(b1-4)Glc = molecular target: Fuc(a1-2)Gal(b1-4)Glc
# Procedure, shortened: as §1
# Fuc(a1-2)Gal(b1-4)GlcNAc = molecular target: Fuc(a1-2)Gal(b1-4)GlcNAc
# Procedure, shortened: as §1
# [6] = molecular target: Fuc(a1-2)Gal(b1-4)GlcNAc(b1-3)Gal(b1-4)GlcNAc
# Procedure, shortened: as §1
# [7] = molecular target: Fuc(a1-2)Gal(b1-4)GlcNAc(b1-3)Gal(b1-4)GlcNAc(b1-3)Gal(b1-4)GlcNAc
# Procedure, shortened: as §1
# [8] = molecular target: Fuc(a1-2)Gal(b1-4)[Fuc(a1-3)]GlcNAc
# Procedure, shortened: as §1
# [9] = molecular target: Fuc(a1-2)Gal(b1-4)[Fuc(a1-3)]GlcNAc(b1-3)Gal(b1-4)[Fuc(a1-3)]GlcNAc
# Procedure, shortened: as §1
# [10] = molecular target: Fuc(a1-2)Gal(b1-4)[Fuc(a1-3)]GlcNAc(b1-3)Gal(b1-4)[Fuc(a1-3)]GlcNAc(b1-3)Gal(b1-4)[Fuc(a1-3)]GlcNAc
# Procedure, shortened: as §1
# Fuc(a1-2)GlcNAc = molecular target: Fuc(a1-2)GlcNAc
# Procedure, shortened: as §1
# Fuc(a1-2)[Gal(a1-3)]Gal = molecular target: Fuc(a1-2)[Gal(a1-3)]Gal
# Procedure, shortened: as §1
# [11] = molecular target: Fuc(a1-2)[Gal(a1-3)]Gal(b1-3)GlcNAc
# Procedure, shortened: as §1
# [12] = molecular target: Fuc(a1-2)[Gal(a1-3)]Gal(b1-4)Glc
# Procedure, shortened: as §1
# [13] = molecular target: Fuc(a1-2)[Gal(a1-3)]Gal(b1-4)GlcNAc
# Procedure, shortened: as §1
# [14] = molecular target: Fuc(a1-2)[Gal(a1-3)]Gal(b1-4)[Fuc(a1-3)]GlcNAc
# Procedure, shortened: as §1
# [15] = molecular target: Fuc(a1-2)[Gal(a1-4)]Gal(b1-4)GlcNAc
# Procedure, shortened: as §1
# [16] = molecular target: Fuc(a1-2)[GalNAc(a1-3)]Gal
# Procedure, shortened: as §1
# [17] = molecular target: Fuc(a1-2)[GalNAc(a1-3)]Gal(b1-3)GlcNAc
# Procedure, shortened: as §1
# [18] = molecular target: Fuc(a1-2)[GalNAc(a1-3)]Gal(b1-4)Glc
# Procedure, shortened: as §1
# [19] = molecular target: Fuc(a1-2)[GalNAc(a1-3)]Gal(b1-4)GlcNAc
# Procedure, shortened: as §1
# [20] = molecular target: Fuc(a1-2)[GalNAc(a1-3)]Gal(b1-4)[Fuc(a1-3)]GlcNAc
# Procedure, shortened: as §1
# [21] = molecular target: Fuc(a1-2)[GalNAc(a1-4)]Gal(b1-4)GlcNAc
# Procedure, shortened: as §1
# [22] = molecular target: Fuc(a1-2)[GalNAc(b1-3)]Gal
# Procedure, shortened: as §1
# Fuc(a1-3)GlcNAc = molecular target: Fuc(a1-3)GlcNAc
# Procedure, shortened: as §1
# [23] = molecular target: Fuc(a1-3)[Gal(b1-4)]GlcNAc
# Procedure, shortened: as §1
# [24] = molecular target: Fuc(a1-3)[Gal(b1-4)]GlcNAc(b1-4)Gal(b1-4)[Fuc(a1-3)]GlcNAc
# Procedure, shortened: as §1
# [25] = molecular target: Fuc(a1-3)[Gal(b1-4)]GlcNAc(b1-4)Gal(b1-4)[Fuc(a1-3)]GlcNAc(b1-4)Gal(b1-4)[Fuc(a1-3)]GlcNAc
# Procedure, shortened: as §1
# [26] = molecular target: Fuc(a1-3)[Gal3S(b1-4)]GlcNAc
# Procedure, shortened: as §1
# [27] = molecular target: Fuc(a1-3)[GalNAc(b1-4)]GlcNAc
# Procedure, shortened: as §1
# Fuc(a1-4)GlcNAc = molecular target: Fuc(a1-4)GlcNAc
# Procedure, shortened: as §1
# Fuc(b1-3)GlcNAc = molecular target: Fuc(b1-3)GlcNAc
# Procedure, shortened: as §1
# Gal(a1-2)Gal = molecular target: Gal(a1-2)Gal
# Procedure, shortened: as §1
# Gal(a1-3)Gal = molecular target: Gal(a1-3)Gal
# Procedure, shortened: as §1
# Gal(a1-3)Gal(b1-3)GlcNAc = molecular target: Gal(a1-3)Gal(b1-3)GlcNAc
# Procedure, shortened: as §1
# Gal(a1-3)Gal(b1-4)Glc = molecular target: Gal(a1-3)Gal(b1-4)Glc
# Procedure, shortened: as §1
# Gal(a1-3)Gal(b1-4)GlcNAc = molecular target: Gal(a1-3)Gal(b1-4)GlcNAc
# Procedure, shortened: as §1
# [28] = molecular target: Gal(a1-3)Gal(b1-4)[Fuc(a1-3)]GlcNAc
# Procedure, shortened: as §1
# Gal(a1-3)GalNAc = molecular target: Gal(a1-3)GalNAc
# Procedure, shortened: as §1
# [29] = molecular target: Gal(a1-3)[Gal(a1-4)]Gal(b1-4)GlcNAc
# Procedure, shortened: as §1
# Gal(a1-4)Gal(b1-4)Glc = molecular target: Gal(a1-4)Gal(b1-4)Glc
# Procedure, shortened: as §1
# Gal(a1-4)Gal(b1-4)GlcNAc = molecular target: Gal(a1-4)Gal(b1-4)GlcNAc
# Procedure, shortened: as §1
# Gal(a1-4)GlcNAc = molecular target: Gal(a1-4)GlcNAc
# Procedure, shortened: as §1
# Gal(a1-6)Glc = molecular target: Gal(a1-6)Glc
# Procedure, shortened: as §1
# Gal(b1-2)Gal = molecular target: Gal(b1-2)Gal
# Procedure, shortened: as §1
# Gal(b1-3)Gal = molecular target: Gal(b1-3)Gal
# Procedure, shortened: as §1
# Gal(b1-3)GalNAc = molecular target: Gal(b1-3)GalNAc
# Procedure, shortened: as §1
# [30] = molecular target: Gal(b1-3)GalNAc(b1-3)Gal(a1-4)Gal(b1-4)Glc
# Procedure, shortened: as §1
# [31] = molecular target: Gal(b1-3)GalNAc(b1-4)Gal(b1-4)Glc
# Procedure, shortened: as §1
# [32] = molecular target: Gal(b1-3)GalNAc(b1-4)[Neu5Ac(a2-3)]Gal(b1-4)Glc
# Procedure, shortened: as §1
# Gal(b1-3)GlcNAc = molecular target: Gal(b1-3)GlcNAc
# Procedure, shortened: as §1
# [33] = molecular target: Gal(b1-3)GlcNAc(b1-3)Gal(b1-4)Glc
# Procedure, shortened: as §1
# [34] = molecular target: Gal(b1-3)GlcNAc(b1-3)Gal(b1-4)GlcNAc
# Procedure, shortened: as §1
# [35] = molecular target: Gal(b1-3)[Fuc(a1-4)]GlcNAc
# Procedure, shortened: as §1
# [36] = molecular target: Gal(b1-3)[Fuc(a1-4)]GlcNAc(b1-3)Gal(b1-4)GlcNAc
# Procedure, shortened: as §1
binder,measurement,setting,value
FaeGad (Escherichia coli) (protein) WMTGDFNGSVDIGGSITADDYRQKWEWEVGTGLNGFGSVLNDLTNGGTKLTITVTGNKPILLGRTKEAFATPVTSGVDGIPHIAFTDYEGASVELRNPDGETEKGLTYFVLPMKNAEGTKVGSVKVNASYAGALGRGGVTSADGELMSLFAEGSHAIFYGGLPTNVKNSELKGGSAAAARTELFGSLSKNDILGQIQRVNANITSLVNVPGSFNENMAYTDGSVVSVAYALGIANGQTIEATFNQAVTTSTQWSAPLNVAITYY,glycan array binding signal (z-score),Fuc(a1-2)Gal,0.035
same,glycan array binding signal (z-score),Fuc(a1-2)Gal(b1-3)GalNAc,-0.282
same,glycan array binding signal (z-score),[1],-0.416
same,glycan array binding signal (z-score),[2],-0.404
same,glycan array binding signal (z-score),[3],-0.391
same,glycan array binding signal (z-score),Fuc(a1-2)Gal(b1-3)GlcNAc,-0.325
same,glycan array binding signal (z-score),[4],-0.212
same,glycan array binding signal (z-score),[5],-0.37
same,glycan array binding signal (z-score),Fuc(a1-2)Gal(b1-4)Glc,-0.148
same,glycan array binding signal (z-score),Fuc(a1-2)Gal(b1-4)GlcNAc,-0.353
same,glycan array binding signal (z-score),[6],-0.407
same,glycan array binding signal (z-score),[7],-0.365
same,glycan array binding signal (z-score),[8],-0.348
same,glycan array binding signal (z-score),[9],-0.382
same,glycan array binding signal (z-score),[10],-0.262
same,glycan array binding signal (z-score),Fuc(a1-2)GlcNAc,-0.247
same,glycan array binding signal (z-score),Fuc(a1-2)[Gal(a1-3)]Gal,-0.425
same,glycan array binding signal (z-score),[11],-0.429
same,glycan array binding signal (z-score),[12],-0.361
same,glycan array binding signal (z-score),[13],-0.436
same,glycan array binding signal (z-score),[14],-0.473
same,glycan array binding signal (z-score),[15],-0.36
same,glycan array binding signal (z-score),[16],-0.338
same,glycan array binding signal (z-score),[17],-0.5
same,glycan array binding signal (z-score),[18],-0.482
same,glycan array binding signal (z-score),[19],-0.489
same,glycan array binding signal (z-score),[20],-0.288
same,glycan array binding signal (z-score),[21],-0.268
same,glycan array binding signal (z-score),[22],0.037
same,glycan array binding signal (z-score),Fuc(a1-3)GlcNAc,0.055
same,glycan array binding signal (z-score),[23],-0.218
same,glycan array binding signal (z-score),[24],-0.079
same,glycan array binding signal (z-score),[25],-0.402
same,glycan array binding signal (z-score),[26],-0.164
same,glycan array binding signal (z-score),[27],-0.266
same,glycan array binding signal (z-score),Fuc(a1-4)GlcNAc,-0.295
same,glycan array binding signal (z-score),Fuc(b1-3)GlcNAc,-0.101
same,glycan array binding signal (z-score),Gal(a1-2)Gal,0.214
same,glycan array binding signal (z-score),Gal(a1-3)Gal,0.094
same,glycan array binding signal (z-score),Gal(a1-3)Gal(b1-3)GlcNAc,-0.346
same,glycan array binding signal (z-score),Gal(a1-3)Gal(b1-4)Glc,-0.266
same,glycan array binding signal (z-score),Gal(a1-3)Gal(b1-4)GlcNAc,-0.496
same,glycan array binding signal (z-score),[28],-0.344
same,glycan array binding signal (z-score),Gal(a1-3)GalNAc,-0.072
same,glycan array binding signal (z-score),[29],-0.381
same,glycan array binding signal (z-score),Gal(a1-4)Gal(b1-4)Glc,-0.336
same,glycan array binding signal (z-score),Gal(a1-4)Gal(b1-4)GlcNAc,-0.289
same,glycan array binding signal (z-score),Gal(a1-4)GlcNAc,-0.054
same,glycan array binding signal (z-score),Gal(a1-6)Glc,0.615
same,glycan array binding signal (z-score),Gal(b1-2)Gal,0.234
same,glycan array binding signal (z-score),Gal(b1-3)Gal,0.404
same,glycan array binding signal (z-score),Gal(b1-3)GalNAc,0.383
same,glycan array binding signal (z-score),[30],-0.007
same,glycan array binding signal (z-score),[31],0.156
same,glycan array binding signal (z-score),[32],-0.114
same,glycan array binding signal (z-score),Gal(b1-3)GlcNAc,-0.282
same,glycan array binding signal (z-score),[33],0.448
same,glycan array binding signal (z-score),[34],-0.338
same,glycan array binding signal (z-score),[35],-0.179
same,glycan array binding signal (z-score),[36],-0.391
